# Some of the results follow.
# T1: UNK ZnF1-6 (called full-length) (human, UniProt Q9C0B0 30-357)
# T1 sequence: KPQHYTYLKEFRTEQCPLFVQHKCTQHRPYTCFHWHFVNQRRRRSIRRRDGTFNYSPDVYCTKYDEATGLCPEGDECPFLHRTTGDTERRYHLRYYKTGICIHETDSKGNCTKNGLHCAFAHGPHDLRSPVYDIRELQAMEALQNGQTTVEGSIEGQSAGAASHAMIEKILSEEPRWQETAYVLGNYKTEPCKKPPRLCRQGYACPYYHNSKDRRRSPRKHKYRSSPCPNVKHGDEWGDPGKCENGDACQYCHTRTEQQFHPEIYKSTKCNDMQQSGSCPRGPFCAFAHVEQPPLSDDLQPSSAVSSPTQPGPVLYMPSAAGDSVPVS
# B1: ENSG00000136451:be:win_3551|3pUTR|ENSG00000136451|bound_else_gene|NA|bound_elsewhere_windowed (ssRNA)
# RNA: GGGAGUUCUACAGUCCGACGAUCACUACUGGAAGGACUCGUGUAGGGAAAGCCCAAGAAUGACCUUGCUGAGGCCUGGAUUGGGAGGCACAGUGGCCACAUUUGGAGGAAGUUCACAUUUCCUGGCAUGCAGACCCAAAACUGCAACAGAGGAUUGAGCAUCA
# B2: chr2:223959526:223959698:+|CDS|ENSG00000135900|unk|FALSE|unique (ssRNA)
# RNA: GGGAGUUCUACAGUCCGACGAUCCUGGGAUUACCAUGCAGAAAUACAAGCUUUUGGACAUCGGUUACAGGAAAACUUUUCCUUAGAUCUUCUCAAAACUGCAUUUGUUAAUAGCUGCUAUAUUAAAAGUGAGGAGGCCAAACGCAACAGAGGAUUGAGCAUCA
# B3: ENSG00000126261:stop:overlap|stop_codon|ENSG00000126261|stop_codon|NA|stop_codon (ssRNA)
# RNA: GGGAGUUCUACAGUCCGACGAUCAUCUCGUGCUCACCGGUUUCUCCCACAUCGACCUGCCACCAGGGUCUCACUAUUUUGCUUAGGCUGGUCUUGAAGGUCUGGGCUCAAGCGAUUCUCUCACUUUGUCCUCCCAAAGUGUUGCAACAGAGGAUUGAGCAUCA
# B4: ENSG00000136451:be:win_1201|CDS|ENSG00000136451|bound_else_gene|NA|bound_elsewhere_windowed (ssRNA)
# RNA: GGGAGUUCUACAGUCCGACGAUCUUCAGUAUAACAUCCUCUGUGUCGUCUGGGACUAUGUCAAACCCAGUCACAGUGGCAGCUGCAAUGAGCAUGAGAAGUCCAGUAAAUGUUUCAAGUGCAGUUAACAUAACCAGCCCAAUGCAACAGAGGAUUGAGCAUCA
# B5: chr5:150709129:150709230:-|3pUTR|ENSG00000132912|msi1|total|mutant (ssRNA)
# RNA: GGGAGUUCUACAGUCCGACGAUCCACAAAACACUUUGAUCAUAAACUUUUUUCUUCAGAAGCCAAACUAACUUGCAGAAUAACCGAGCCACUGGUUUAAUGUUUCCUCAAGACCGGUUUCCGUGUAAGCCCGUAUUCUGUGUGCAACAGAGGAUUGAGCAUCA
# B6: ENSG00000107863:be:win_3051|CDS|ENSG00000107863|bound_else_gene|NA|bound_elsewhere_windowed (ssRNA)
# RNA: GGGAGUUCUACAGUCCGACGAUCAUGCCUGUUUCAGGCUGAAGACAGAGAUGAUAUGCUAGCUUGGAUCAAGACGAUCCAGGAGAGCAGCAACCUAAACGAAGAGGACACUGGAGUCACUAACAGGGAUCUAAUUAGUCGAAGCAACAGAGGAUUGAGCAUCA
# B7: chr10:117282838:117282939:-|3pUTR|ENSG00000165650|unk|total|mutant (ssRNA)
# RNA: GGGAGUUCUACAGUCCGACGAUCCCCCUUGUGUUAUUUUUCUUCCUCUUGGUUUUUGAAUCCGUGUUAAACCGAAUACUGUCCCGAUUCUUAAAAUAUUUUCAUUUCCAUCAUGGUUAUAACAAAUUUGCUGCAUGCCCAAACCAACAGAGGAUUGAGCAUCA
# B8: ENSG00000107863:be:win_1|CDS|ENSG00000107863|bound_else_gene|NA|bound_elsewhere_windowed (ssRNA)
# RNA: GGGAGUUCUACAGUCCGACGAUCAUGAUGGCCACGCGUCGGACUGGUCUGUCUGAGGGAGAUGGUGACAAGCUCAAGGCCUGCGAGGUCUCAAAAAAUAAAGAUGGAAAAGAACAAAGUGAAACUGUAUCACUGUCUGAAGAUCAACAGAGGAUUGAGCAUCA
# B9: chr17:46339502:46339774:-|CDS|ENSG00000228696|control|control|control (ssRNA)
# RNA: GGGAGUUCUACAGUCCGACGAUCUGUAGUCACGUGGAAUUUGGAAUGUGGAAAGGAGGUAGAAGUCAUCCUUUCCUCCCCCAUAGCAGCAGGUGUGCAGGCUCUGGUGGUCAGCUGGACUCCAUACUCCCCCACCAGUCACCACAACAGAGGAUUGAGCAUCA
# B10: ENSG00000198589:be:win_6251|CDS|ENSG00000198589|bound_else_gene|NA|bound_elsewhere_windowed (ssRNA)
# RNA: GGGAGUUCUACAGUCCGACGAUCGCACUCUUUCUGUCACCUCCUCCGAACUCUAUUUUGAGGUGGAUGAAGAGGAUCCUAACUUCAAAAAAAUCGACCCCAAGAUCUUGGCAUAUACAGAAGGGCUGCAUGGAAAAUGGCUGUCAACAGAGGAUUGAGCAUCA
# B11: chr5:141516432:141516515:-|3pUTR|ENSG00000131504|msi1_unk|total|mutant (ssRNA)
# RNA: GGGAGUUCUACAGUCCGACGAUCCUCAGACAAGGCCCAGCCUGCUUUUUCUCAGCCCUGACUUUCUAAUGGGCUUUCCCCCCCCGGUCAGUCUUGCUGGAUUUGUGCUUUUCUUUUGUGGUUUCUCUGGCCCUGAGAACCGCACAACAGAGGAUUGAGCAUCA
# B12: chr11:13729208:13729309:+|3pUTR|ENSG00000197601|unk|FALSE|unique (ssRNA)
# RNA: GGGAGUUCUACAGUCCGACGAUCAAAGUUGGUAGAUAUUUGAUUCUUCAUUUUUUGUUUUUUUCAUUAGUUGAAGUGGGUUUUAGUUUUGUUUAAAAUUAUAACCAGCGUAUUUUCACAUCAUUCUGUAAGUUAAAUGAUAUCCAACAGAGGAUUGAGCAUCA
# B13: chr6:53267885:53267986:-|3pUTR|ENSG00000012660|msi1_unk|total|mutant (ssRNA)
# RNA: GGGAGUUCUACAGUCCGACGAUCUUUAAUGUAAAUCUAACCGUACUUGUAAUUUCUUUCUGCUCCGAAUCUAAAGAUGUGUUCCGAACCUCUUGUUUAAAAAUAACCGACUGCUUAUCAUAAAAUCACAUCUCACACAUUUGACAACAGAGGAUUGAGCAUCA
# B14: chr2:135724104:135724205:+|CDS|ENSG00000048991|msi1|total|mutant (ssRNA)
# RNA: GGGAGUUCUACAGUCCGACGAUCCAACACUGCCAACCCUGAACGCUCUAAACCCAGUGACUUGGCCUCCACCUACACCGUCUCCGCCACAUUCCCCUCCAUUUCAGCUGCACAGAAUGCACUGAAGAAACAAAUUAACUCAGUCAACAGAGGAUUGAGCAUCA
# B15: chr2:96375651:96375752:+|3pUTR|ENSG00000121152|unk|FALSE|unique (ssRNA)
# RNA: GGGAGUUCUACAGUCCGACGAUCAUUGACUAAGACAGUGGGUAUGCAAGAUAAGUUUAUUUUAUAUAAAAUACUUUGGGAAGUAGGUGUUCUAGGACUGGUGUGACAGUUCCAUGAAAUUAUGAGAGACCGGGGAUCCUUCCACAACAGAGGAUUGAGCAUCA
# B16: chr16:68260521:68260622:+|3pUTR|ENSG00000103066|msi1|total|mutant (ssRNA)
# RNA: GGGAGUUCUACAGUCCGACGAUCUCGCAGCUUCCCUGAGCUGCACCUCUUGCUAACCCCACCAUCACACUGCCACCCUGCCCCCGGGUCUCACCCGUACCAAGUGGGUCAGCACAGGGCUGAGGAUGGGGCUCCUAUCCACCCCAACAGAGGAUUGAGCAUCA
# B17: ENSG00000159459:stop:overlap|stop_codon|ENSG00000159459|stop_codon|NA|stop_codon (ssRNA)
# RNA: GGGAGUUCUACAGUCCGACGAUCUCCGCUCACUGACCUCUCCCUCUCUGACUCAAGCAAUUCUCCCACCUCAGCCUCCCGAAUAGCUGGGACCACAGUGGUGGGAUCAGCAAGUUGAUUUUUAUACUGCUUUCUUGCAUCAUUCAACAGAGGAUUGAGCAUCA
# B18: chr8:97851540:97851652:+|3pUTR|ENSG00000104341|msi1_unk|FALSE|overlapping (ssRNA)
# RNA: GGGAGUUCUACAGUCCGACGAUCCACUUUUGCCAUGAGCCUCUCUGAGCUUGUUUGUUGCUGAAAUGCUACUUUUUAAAAUUUAGAUGUUAGAUUGAAAACUGUAGUUUUCAACAUAUGCUUUGCUGGAACACUGUGAUAGAUCAACAGAGGAUUGAGCAUCA
# B19: chr14:102729990:102730091:+|3pUTR|ENSG00000089902|msi1|FALSE|unique (ssRNA)
# RNA: GGGAGUUCUACAGUCCGACGAUCUGCGAUGCUCUUUCUGCCAGUCCCUGAAUCUCUGCAGCUUCUCUUACCUGUCUUACCUGUAGUAAAGCACAAUUGCAGUGGCGUCGCAUUCAGAAGAAGGGAAGGUCAGCAGAGGCUAUGCAACAGAGGAUUGAGCAUCA
# B20: ENSG00000198589:be:win_3901|CDS|ENSG00000198589|bound_else_gene|NA|bound_elsewhere_windowed (ssRNA)
# RNA: GGGAGUUCUACAGUCCGACGAUCUCUACUGUGUUUCGUAUUCCUGAGUUCAACUGGUCUCAGAUGCAUCAACGUUUGCUCACUGAUCUAUUAUUUUCAAUAGAAACAGAUAUACAGAUGUGGAGAAGCCAUUCAACAAAGACACAACAGAGGAUUGAGCAUCA
# B21: chr18:58535911:58536012:-|CDS|ENSG00000198796|msi1|total|mutant (ssRNA)
# RNA: GGGAGUUCUACAGUCCGACGAUCUCUGACCUGCCCUAAAAUCCCCGAGUCCUCUGCCGAUCCCAUUGAUGAGAUAAGUGUGACCGAGUACACCAGGGCUGGAAAACCAGAGCCCUCUGAAACCACACCACAGGGCGCCAGAGACAACAGAGGAUUGAGCAUCA
# B22: chr7:116918052:116918157:+|3pUTR|ENSG00000198898|unk|total|mutant (ssRNA)
# RNA: GGGAGUUCUACAGUCCGACGAUCUUUUCAUUUUGUUUGUUCUAAGAGGAUUGAAAAUCAGUUCCGUUUAAAUGUCUUUCUGUCCGGCCUUUCUUUCUUACAAUGAAGAGAUGAUUCUUCCCGUUUAUGGUUAAAAGUUUUUGACAACAGAGGAUUGAGCAUCA
# Target: T1, UNK ZnF1-6 (called full-length)
# Experiment: nsRBNS (natural sequence RNA bind-n-seq); RBNS binding buffer (assumed for nsRBNS): 25 mM Tris pH 7.5, 150 mM KCl, 3 mM MgCl2, 0.01% Triton X-100, 500 ug/ml BSA, 20 U/ml SUPERase-In, 4 C; UNK is unkempt and MSI1 is Musashi-1; names of the RNAs are library labels; protein concentration not given here; high values mean tight binding
row,Binder,binding signal
1,B1,0.956 enrichment R
2,B2,0.468 enrichment R
3,B3,0.365 enrichment R
4,B4,0.462 enrichment R
5,B5,0.324 enrichment R
6,B6,0.635 enrichment R
7,B7,0.711 enrichment R
8,B8,0.711 enrichment R
9,B9,0.972 enrichment R
10,B10,0.599 enrichment R
11,B11,0.574 enrichment R
12,B12,1.5 enrichment R
13,B13,0.478 enrichment R
14,B14,0.85 enrichment R
15,B15,0.838 enrichment R
16,B16,0.803 enrichment R
17,B17,0.706 enrichment R
18,B18,0.568 enrichment R
19,B19,0.535 enrichment R
20,B20,0.382 enrichment R
21,B21,0.72 enrichment R
22,B22,0.615 enrichment R

# Source: paper PMC12136788
